28 compounds from the antibiotic and cytotoxicity screens of Wong et al. (2023) can be followed below.

Molecules are shown by their SMILES. The list shows a part of the results.

The test system of one test is HSkMC. As to the kind of experiment: cytotoxicity call (relative viability < 0.9). To be noted: 10 µM.
The next test concerns HepG2. The experiment in a line: cytotoxicity call (relative viability < 0.9). To be noted: 10 µM.
A further test relates to S. aureus RN4220. The experiment in a line: growth inhibition call (relative growth <= 0.2). To be noted: 50 µM.

With `C[C@@H]1CCCCO[C@@H](CN(C)S(=O)(=O)c2cccs2)[C@@H](C)CN([C@@H](C)CO)C(=O)c2cc(NC(=O)Nc3ccc(F)cc3)ccc2O1`, the cytotoxicity call in the test on HSkMC and with HepG2 was “inactive” in each case. The growth inhibition call in the test on S. aureus RN4220 is “inactive”.

Consider `Cl.Cl.OCCOCCN1CCN(C(c2ccccc2)c2ccc(Cl)cc2)CC1` (centres undefined), for which the cytotoxicity call in the test on HSkMC and in the test with HepG2 was “inactive” in each case. Also, the growth inhibition call in the test with S. aureus RN4220 is “inactive”.

`COc1ccc(cc1)S(=O)(=O)N1C[C@]2(C1)CN([C@H](CO)c1c2c2ccc(cc2n1C)OC)C(=O)CN(C)C`: the cytotoxicity call in the test with HSkMC was “inactive”. The cytotoxicity call in the test with HepG2 was “active”. Further, the growth inhibition call with S. aureus RN4220 was “inactive”.

For `C[C@H]1CN([C@@H](C)CO)C(=O)Cc2cc(NC(=O)CCC(F)(F)F)ccc2O[C@H]1CN(C)Cc1ccc(C(F)(F)F)cc1`, the cytotoxicity call with HSkMC and in the test on HepG2 was “inactive” in each case. For the same compound, in the test on S. aureus RN4220, the growth inhibition call is “inactive”.

As for `Cc1ccc(S(=O)(=O)N[C@H]2C=C[C@H](CC(=O)NCCN3CCCCC3)O[C@H]2CO)cc1`, the cytotoxicity call with HSkMC and in the test on HepG2 was “inactive” throughout. Further, the growth inhibition call in the test with S. aureus RN4220 was “inactive”.

`C/C=C/c1cnc2c(c1)C(=O)N([C@H](C)CO)C[C@H](C)[C@@H](CN(C)S(=O)(=O)c1ccc(OC)cc1)O2`: the cytotoxicity call in the test on HSkMC and in the test with HepG2 was “inactive” in each case. For the same compound, the growth inhibition call in the test on S. aureus RN4220 was “inactive”.

With `COc1ccc(CN(C)C[C@H]2OCCCC[C@@H](C)Oc3ccc(NC(=O)Nc4ccc5c(c4)OCO5)cc3C(=O)N([C@H](C)CO)C[C@H]2C)cc1`, in the test with HSkMC, the cytotoxicity call was “inactive”. In addition, the cytotoxicity call in the test on HepG2 is “active”. Besides, the growth inhibition call in the test on S. aureus RN4220 was “inactive”.

Consider `COc1ccc(NC(=O)Nc2ccc3c(c2)CC(=O)N([C@H](C)CO)C[C@@H](C)[C@H](CN(C)S(=O)(=O)c2cn(C)cn2)O3)cc1`, for which the cytotoxicity call in the test with HSkMC and in the test with HepG2 was “inactive” throughout. The growth inhibition call with S. aureus RN4220 was “inactive”.

Regarding `CN(C)CCN1CCO[C@H]2CN(C(=O)N(C)C)C[C@@H]21`, the cytotoxicity call in the test on HSkMC and in the test with HepG2 was “inactive” in each case. Also, the growth inhibition call in the test with S. aureus RN4220 is “inactive”.

Consider `C[C@@H]1CN([C@H](C)CO)C(=O)Cc2cc(NC(=O)Cc3cn(C)c4ccccc34)ccc2O[C@@H]1CN(C)S(=O)(=O)c1cn(C)cn1`, for which the cytotoxicity call in the test on HSkMC and in the test on HepG2 was “inactive” in each case. Further, in the test with S. aureus RN4220, the growth inhibition call is “inactive”.

Consider `CCCNC(=O)N1C[C@H](O)COC[C@H]2O[C@H](CC(=O)N3CCN(C)CC3)CC[C@@H]21`, for which the cytotoxicity call in the test on HSkMC and with HepG2 was “inactive” throughout. For the same compound, in the test with S. aureus RN4220, the growth inhibition call is “inactive”.

For `COc1ccc(CN(C)C[C@@H]2Oc3ccc(NC(=O)C4CC4)cc3CC(=O)N([C@@H](C)CO)C[C@@H]2C)cc1`, the cytotoxicity call in the test with HSkMC and in the test on HepG2 was “inactive” in each case. The growth inhibition call with S. aureus RN4220 was “inactive”.

In the case of `O=C(C[C@@H]1CC=CCCC(=O)OC[C@H](Cc2c[nH]c3ccccc23)NC1=O)N[C@H](CO)Cc1ccccc1`, the cytotoxicity call with HSkMC and in the test with HepG2 was “inactive” in each case. In addition, the growth inhibition call in the test with S. aureus RN4220 is “inactive”.

Take `COC1(NC(=O)CSCC#N)C(=O)N2C(C(=O)[O-])=C(CSc3nnnn3C)CSC21.[Na+]` (centres undefined): the cytotoxicity call with HSkMC and with HepG2 was “inactive” in each case. Further, in the test on S. aureus RN4220, the growth inhibition call was “active”.

For `C[C@@H]1CCCCO[C@H](CN(C)CC2CCCCC2)[C@@H](C)CN([C@@H](C)CO)C(=O)c2cc(NS(=O)(=O)c3cccs3)ccc2O1`, the cytotoxicity call in the test with HSkMC and with HepG2 was “inactive” in each case. Besides, the growth inhibition call in the test with S. aureus RN4220 is “inactive”.

Take `C[C@@H]1CN([C@@H](C)CO)C(=O)c2cc(NC(=O)c3ccccc3)ccc2O[C@@H](C)CCCCO[C@H]1CN(C)C(=O)c1ccccc1`: the cytotoxicity call with HSkMC and in the test with HepG2 was “inactive” throughout. The growth inhibition call with S. aureus RN4220 was “inactive”.

As for `C[C@H](CO)N1C[C@H](C)[C@@H](CN(C)C(=O)c2ccccc2F)Oc2ncc(C#Cc3ccncc3)cc2C1=O`, the cytotoxicity call in the test with HSkMC and in the test with HepG2 was “inactive” throughout. The growth inhibition call with S. aureus RN4220 was “inactive”.

With `OCCc1ccc2c(c1)OCO2`, the cytotoxicity call with HSkMC and in the test with HepG2 was “inactive” throughout. In the test on S. aureus RN4220, the growth inhibition call was “inactive”.

For the compound `Nc1nonc1C(=O)NCc1ccco1`, the cytotoxicity call in the test on HSkMC and with HepG2 was “inactive” each time. The growth inhibition call with S. aureus RN4220 was “inactive”.

As to `COc1ccc2nc(S(=O)Cc3ncc(C)c(OC)c3C)[nH]c2c1` (centres undefined), the cytotoxicity call in the test on HSkMC and with HepG2 was “inactive” each time. Further, the growth inhibition call with S. aureus RN4220 was “inactive”.

Regarding `Cc1noc(C)c1NC(=O)N(C)C[C@H]1OCCCC[C@@H](C)Oc2ccc(NS(=O)(=O)c3ccccc3)cc2C(=O)N([C@H](C)CO)C[C@@H]1C`, the cytotoxicity call with HSkMC and in the test on HepG2 was “inactive” throughout. Also, in the test with S. aureus RN4220, the growth inhibition call is “inactive”.

Consider `Cn1cnc(S(=O)(=O)N2C[C@H](O)COC[C@H]3O[C@H](CC(=O)N4CCN(c5ccccc5)CC4)CC[C@@H]32)c1`, for which the cytotoxicity call with HSkMC and in the test on HepG2 was “inactive” each time. Besides, the growth inhibition call in the test on S. aureus RN4220 is “inactive”.

Consider `N#Cc1c(-c2ccccc2)no[n+]1[O-]`, for which the cytotoxicity call with HSkMC and with HepG2 was “inactive” each time. Moreover, the growth inhibition call in the test with S. aureus RN4220 was “inactive”.

`C[C@H]1CCCCO[C@H](CN(C)CC2CCCCC2)[C@@H](C)CN([C@@H](C)CO)C(=O)c2cc(NC(=O)Nc3ccc4c(c3)OCO4)ccc2O1`: in the test on HSkMC, the cytotoxicity call is “inactive”. The cytotoxicity call in the test on HepG2 was “active”. For the same compound, in the test with S. aureus RN4220, the growth inhibition call was “inactive”.

As to `Clc1ccc(-c2csc(-c3ccc4c(c3)CCO4)n2)s1`, the cytotoxicity call in the test with HSkMC and with HepG2 was “inactive” throughout. Also, the growth inhibition call in the test with S. aureus RN4220 is “inactive”.

For `COCC(=O)N1C[C@H](C)[C@H](OC)CN(C)C(=O)c2ccc(NC(=O)Nc3cccc(F)c3)cc2OC[C@H]1C`, the cytotoxicity call with HSkMC and in the test with HepG2 was “inactive” each time. For the same compound, the growth inhibition call with S. aureus RN4220 was “inactive”.

Take `C[C@@H]1CN([C@H](C)CO)C(=O)c2cccc(NC(=O)C3CCOCC3)c2O[C@H]1CN(C)C(=O)Nc1ccc2c(c1)OCO2`: the cytotoxicity call in the test on HSkMC (human skeletal muscle cells) and with HepG2 was “inactive” in each case. Also, in the test on S. aureus RN4220, the growth inhibition call is “inactive”.

As to `C[C@@H]1CN([C@H](C)CO)S(=O)(=O)c2ccc(C#Cc3ccccc3)cc2O[C@H]1CN(C)C(=O)Cc1ccccn1`, the cytotoxicity call in the test with HSkMC and in the test on HepG2 was “inactive” each time. Further, the growth inhibition call in the test on S. aureus RN4220 is “inactive”.
